Measured values as given in the supplement of paper PMC3334620.
Over roughly 33,000 sequences, “E-score (-0.5 to 0.5)” has its median near -0.017; the highest 2% begin near 0.3. Some of the results follow.

What follows are sequences tested against T1, Sut1 (UniProt P53032) (assay: PBM E-score (8-mer binding enrichment) (E-score (-0.5 to 0.5)); higher = stronger / more preferred TF binding; most listed sequences are background and not binding sites). Conditions: protein concentration: 200 nM; construct: GST-full length.
T1 sequence: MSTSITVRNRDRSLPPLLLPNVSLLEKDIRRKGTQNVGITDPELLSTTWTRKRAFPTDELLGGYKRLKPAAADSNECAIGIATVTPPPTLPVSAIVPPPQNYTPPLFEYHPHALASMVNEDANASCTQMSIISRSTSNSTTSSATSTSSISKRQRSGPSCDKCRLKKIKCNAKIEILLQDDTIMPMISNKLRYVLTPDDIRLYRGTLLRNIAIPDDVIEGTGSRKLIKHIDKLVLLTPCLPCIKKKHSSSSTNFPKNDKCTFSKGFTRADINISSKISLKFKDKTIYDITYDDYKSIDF
How it was run: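 Yeast transcription factors, full-length or as DNA-binding domains, were expressed with a GST tag using PURExpress in vitro transcription/translation. At about 100-200 nM they were applied to universal all-10-mer Agilent arrays, double-stranded by primer extension on fresh or once-stripped slides. Fluorescent anti-GST detected bound protein, and masliner normalised the scans. E-scores for ungapped eight-base words, pooled with reverse complements, came from the Universal PBM Analysis Suite.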
In the case of CGGCGACA, the “PBM E-score” value is reported as -0.166.
For AATGGGAG, the “PBM E-score” value was -0.0748.
In the case of GACTCCGA, the “PBM E-score” value is reported as 0.486.
In the case of ACGTCTCC, the “PBM E-score” value is reported as -0.0319.
GAGAAATC was tested, and the “PBM E-score” value was 0.16.
CCAAACGC was tested, and the “PBM E-score” value was -0.202.
In the case of TGGGTAAA, the “PBM E-score” value is reported as 0.0215.
TAAAAACA was tested, and the “PBM E-score” value was 0.188.
ACCCGATG was tested, and the “PBM E-score” value was -0.165.
In the case of GCACAGCC, the “PBM E-score” value is reported as -0.202.
With ATCTTTGA the “PBM E-score” value was 0.131.
For GCCGACAA, the “PBM E-score” value was 0.064.
In the case of AAGCCCGT, the “PBM E-score” value is reported as -0.0772.
AAGACTAG was tested, and the “PBM E-score” value was -0.15.
With GTCTTGAA the “PBM E-score” value was 0.122.
In the case of CTTCAGCA, the “PBM E-score” value is reported as -0.109.
For AAGGGAGC, the “PBM E-score” value was -0.218.
With ACCTGAAA the “PBM E-score” value was 0.0304.
With ACTTCCGG the “PBM E-score” value was 0.233.
With CAGCGGTC the “PBM E-score” value was -0.185.
With GATAAAGC the “PBM E-score” value was 0.016.
AAGCATGT was tested, and the “PBM E-score” value was 0.0702.
In the case of CCCAGTCA, the “PBM E-score” value is reported as -0.163.
With CCGGATCC the “PBM E-score” value was 0.141.
For GGGTGTAC, the “PBM E-score” value was -0.0844.
With ACCTGACA the “PBM E-score” value was -0.123.
In the case of ACTATGTG, the “PBM E-score” value is reported as 0.0329.
In the case of ATTACTGG, the “PBM E-score” value is reported as -0.0106.
With GTAGTCGA the “PBM E-score” value was 0.0978.
AGTACATG was tested, and the “PBM E-score” value was 0.0629.
In the case of ACAGTCTC, the “PBM E-score” value is reported as -0.112.
With CGCGAAGC the “PBM E-score” value was -0.0203.
With CGATCACG the “PBM E-score” value was 0.119.
For CGGCCACG, the “PBM E-score” value was -0.164.
AGCGCAGG was tested, and the “PBM E-score” value was -0.158.
With ACTTAGAG the “PBM E-score” value was 0.0503.
CAGCAGGC was tested, and the “PBM E-score” value was 0.00282.
For CGGACTAC, the “PBM E-score” value was 0.464.
With GCACCTTA the “PBM E-score” value was -0.00495.
In the case of CAGGATTC, the “PBM E-score” value is reported as -0.114.
For GGAATTGA, the “PBM E-score” value was 0.193.
With ACTAATGA the “PBM E-score” value was 0.171.
In the case of CACTCGTA, the “PBM E-score” value is reported as -0.091.
For GGGTTACA, the “PBM E-score” value was -0.00487.
With ACGTATTA the “PBM E-score” value was 0.25.
In the case of ATTGAAAC, the “PBM E-score” value is reported as 0.184.
With TCCGCTCA the “PBM E-score” value was -0.0284.
With AGCCGGTG the “PBM E-score” value was 0.00841.
CTCGCAGA was tested, and the “PBM E-score” value was -0.2.
ATCCTACC was tested, and the “PBM E-score” value was -0.136.
ACGTCCAT was tested, and the “PBM E-score” value was -0.113.
For GAGGGTAC, the “PBM E-score” value was -0.296.
For AGGTGATC, the “PBM E-score” value was -0.00559.
In the case of CGGCAATA, the “PBM E-score” value is reported as 0.0568.
In the case of TAGAACTA, the “PBM E-score” value is reported as 0.153.
In the case of AGCCAGGC, the “PBM E-score” value is reported as -0.225.
With CGAATTCA the “PBM E-score” value was 0.15.
In the case of AAATGGCG, the “PBM E-score” value is reported as 0.0515.
With CTGGATCA the “PBM E-score” value was -0.0551.
CCTACGTA was tested, and the “PBM E-score” value was -0.0517.
In the case of GGAGTTCA, the “PBM E-score” value is reported as 0.339.
For AGCAATGA, the “PBM E-score” value was 0.0807.
TGATCACA was tested, and the “PBM E-score” value was 0.0721.
In the case of AGCAACGG, the “PBM E-score” value is reported as 0.144.
In the case of ATGAGGCG, the “PBM E-score” value is reported as -0.246.
ATCGGTTG was tested, and the “PBM E-score” value was 0.0119.
CTGGGGGC was tested, and the “PBM E-score” value was -0.388.
With ACGATAGT the “PBM E-score” value was 0.143.
AACGAACT was tested, and the “PBM E-score” value was -0.0484.
In the case of CCAAACTA, the “PBM E-score” value is reported as 0.0416.
For CGGAAAGA, the “PBM E-score” value was 0.312.
GAGCTGCC was tested, and the “PBM E-score” value was 0.0317.
For TCGTCGCA, the “PBM E-score” value was -0.0851.
With CCATAACC the “PBM E-score” value was -0.199.
GACACTGC was tested, and the “PBM E-score” value was -0.162.
CTGGTGTC was tested, and the “PBM E-score” value was -0.0948.
With ATTTTTAG the “PBM E-score” value was 0.0681.
With ACTCACGA the “PBM E-score” value was -0.144.
For CACAATCC, the “PBM E-score” value was 0.188.
AAGGAGCA was tested, and the “PBM E-score” value was 0.0291.
For CTCGACAG, the “PBM E-score” value was -0.251.
For CTAGGGGA, the “PBM E-score” value was -0.131.
CAGTCACA was tested, and the “PBM E-score” value was -0.17.
With AATCTCAT the “PBM E-score” value was 0.161.
AGCCAAAT was tested, and the “PBM E-score” value was 0.14.
In the case of AAATGTCG, the “PBM E-score” value is reported as -0.126.
In the case of CCGTCTGC, the “PBM E-score” value is reported as -0.139.
In the case of ATGCGGTA, the “PBM E-score” value is reported as 0.133.
ACAACGAG was tested, and the “PBM E-score” value was 0.00573.
For TATTACAA, the “PBM E-score” value was 0.239.
With CCAAGACG the “PBM E-score” value was -0.0858.
For ACTGTCCA, the “PBM E-score” value was -0.166.
With CTTGTCGA the “PBM E-score” value was -0.195.
In the case of AACCTATA, the “PBM E-score” value is reported as 0.232.
AGCTGGTC was tested, and the “PBM E-score” value was -0.152.
In the case of CGTCTAAG, the “PBM E-score” value is reported as -0.0493.
ATCGACAG was tested, and the “PBM E-score” value was -0.106.
For GTTGTCTA, the “PBM E-score” value was 0.22.
In the case of CACACAGA, the “PBM E-score” value is reported as -0.0363.
With ACCTGGAT the “PBM E-score” value was -0.235.
In the case of TATCGATA, the “PBM E-score” value is reported as -0.0843.
AGCCTAAG was tested, and the “PBM E-score” value was -0.252.
For ACGCGTAT, the “PBM E-score” value was -0.0385.
In the case of GGAGTAGA, the “PBM E-score” value is reported as 0.318.
With ACCTATCT the “PBM E-score” value was 0.0362.
With AGCCCGAC the “PBM E-score” value was -0.123.
For ACTGTTTC, the “PBM E-score” value was -0.0369.
GATCGAGC was tested, and the “PBM E-score” value was 0.0593.
GACCCCTA was tested, and the “PBM E-score” value was -0.323.
In the case of CTTGCACA, the “PBM E-score” value is reported as -0.018.
In the case of AATGAGGG, the “PBM E-score” value is reported as -0.18.
For GACAAAGC, the “PBM E-score” value was -0.0456.
For CCCACGTC, the “PBM E-score” value was -0.112.
With CGCGGCAG the “PBM E-score” value was -0.0689.
In the case of GCCAGTCC, the “PBM E-score” value is reported as -0.031.
In the case of AGAGCCAT, the “PBM E-score” value is reported as -0.0848.
With AGACCCCG the “PBM E-score” value was 0.18.
CTGCACTC was tested, and the “PBM E-score” value was -0.108.
For CAGTTCCG, the “PBM E-score” value was 0.0272.
ATAAGCGC was tested, and the “PBM E-score” value was -0.133.
In the case of ATGAGTCC, the “PBM E-score” value is reported as 0.171.
For AAATTTGG, the “PBM E-score” value was -0.0915.
CTAGTGGC was tested, and the “PBM E-score” value was -0.186.
For AACAGGTA, the “PBM E-score” value was 0.0211.
With AATAGGCC the “PBM E-score” value was 0.0314.
In the case of CGTCGAAC, the “PBM E-score” value is reported as -0.191.
For AGACAAAC, the “PBM E-score” value was 0.0938.
In the case of CTTTAATA, the “PBM E-score” value is reported as 0.282.
With CTACCGAG the “PBM E-score” value was -0.115.
